Some of the results follow.
System: T1, C. trachomatis L2/434/Bu expressing GFP (CTL2-GFP)
T1 construct: L2/434/Bu GFP intracellular growth in HeLa cells
Design: species or system HeLa; C. trachomatis total inclusion area by high-content imaging, normalised to DMSO
Conditions: total inclusion area; 28.5 h, 10 µM; inhibitor
In short: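 Imaging read-out: GFP inclusions and Hoechst nuclei captured by high-content imaging after fixation. Inclusion area/number = chlamydial growth; nuclei count = host cell viability. MIC calculated per earlier method.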

SMILES	% of control remaining
Cc1nc(CN2CCCN(S(=O)(=O)c3ccc(C(=O)c4ccccc4)cc3)CC2)c[nH]1 [CBK063029]	82.5419
CC(C)(C)COC(=O)N1CCC2(CC1)CC(=O)N(Cc1ccc(S(C)(=O)=O)cc1)C2=O [CBK155949]	52.1561
Cc1ccc(-c2noc([C@@H]3C[C@H](NC(=O)CCC(=O)O)CN3C)n2)cc1 [CBK288852]	92.5421
C[C@@H](c1ccccc1)n1c(=O)[nH]c2ncc(-c3cncc4ccccc34)nc21 [CBK064726]	76.6708
O=S(=O)(c1ccccc1)C1CCCCO1 (centres unmarked) [CBK020284]	97.4909
CCOCCC(=O)N/N=C(/C)c1ccc(Cl)s1 [CBK007454]	105.067
COc1ccccc1-c1ccc(NS(=O)(=O)c2ccc3c(c2)CCC(=O)N3)cc1 [CBK286353]	110.055
Cc1ccc(CN(CCCn2ccnc2)Cc2nccn2C)s1 [CBK283137]	101.398
CN1CCN(c2nc(-c3ccc4c(c3)CCCC(=O)N4)cs2)CC1 [CBK305600]	39.0875
Cn1nc2c(cc1=O)CN(C(=O)c1ccc3cc[nH]c3c1)CC2 [CBK304343]	60.5884
CS(=O)(=O)N(CC(=O)Nc1ccccc1C(=O)N1CCCC1)c1cc(Cl)c(Cl)cc1Cl [CBK268826]	87.79
COc1ccc(C)cc1S(=O)(=O)Nc1cc(N2CCNC(C(F)(F)F)C2)c2occc2c1 (centres unmarked) [CBK073818C]	104.439
O=C(Cn1cc(C(=O)NCC2(c3ccccc3Cl)CC2)ccc1=O)NC1CCCCC1 [CBK285985]	108.183
O=C(N/C(=C/c1ccccc1)C(=O)N1CCCCC1)c1ccccc1 [CBK261280]	84.3601
CC1Cc2cc(C(O)CN3CCC4CCCCC4C3)ccc2N1S(C)(=O)=O (centres unmarked) [CBK286456]	80.9019
C[C@]12CN(Cc3ccccc3)C[C@H]1CNc1ccccc1C(=O)N2 [CBK282932]	122.682
CCOC(=O)C1CCCN(CCC(=O)Nc2cccc(C)c2)C1 (centres unmarked) [CBK264158C]	96.1257
CN1C(=O)COc2ccccc2CCCC[C@@H]2[C@H]1CCCN2C(=O)CNS(C)(=O)=O [CBK292118]	67.9394
O=C1CC2(CCC3C(C(=O)N4CCCC4)C32)Oc2ccccc21 (centres unmarked) [CBK284969]	77.9466
COc1cncc(-c2cncc(Nc3cc(OC)c(OC)c(OC)c3)n2)c1 [CBK065397]	73.2621
COCc1ccc(C(=O)N2CCC(Cc3ccccc3-c3cccs3)(C(N)=O)CC2)cc1 [CBK286276]	118.433
Clc1ccc(OCCOc2ccccc2)nn1 [CBK176034]	46.274
O=C1CCOC[C@]2(CN(Cc3ccccc3)C[C@H]2c2ccccc2)N1 [CBK283367]	111.487
COc1cccc(Cn2c(=O)[nH]n(-c3ccccc3)c2=O)c1 [CBK122771]	78.4573
NC(=O)CN1CCC[C@@H]2NC(=O)COc3ccccc3C(=O)N[C@@H]3CCOC[C@@H]3C/C=C/C[C@@H]21 [CBK292041]	91.3894

SMILES	% of control remaining
CC(C)(C)NS(=O)(=O)c1ccc(OCC(=O)NCc2ccncc2)cc1 [CBK266434]	104.158
c1ccc(-c2csc(Nc3cccnc3)n2)nc1 [CBK267184]	84.3562
O=C(NC(C(=O)O)c1ccccc1)NC12CC3CC(CC(C3)C1)C2 (centres unmarked) [CBK268313]	93.9365
O=S(=O)(c1ccc2ccccc2c1)N1CCN(CCCOc2ccccc2Cl)CC1 [CBK267018]	105.047
COc1cc(-c2nnc(CSc3nc4sc(C(=O)O)c(C)c4c(=O)[nH]3)o2)cc(OC)c1OC [CBK296973]	97.9555
CCCc1nnc2sc(C3CCC(=O)N(C(C)C)C3)nn12 (centres unmarked) [CBK306942]	45.9388
COc1ccc(Sc2nc(SC)nc(-c3ccccc3)c2C#N)cc1 [CBK291212]	99.0767
O=C1c2ccccc2CN1c1cccc(Cl)c1Cl [CBK109916]	97.4552
COCOc1ccc(-c2ncc(OCCN3CCOCC3)nc2N)cc1 [CBK145100]	104.604
O=C(Nc1cncc(OC2CCNCC2)n1)c1cccnc1 [CBK036375T]	82.8545
Cc1nc(C2CCCCN2C(=O)C2CCCCC2)ncc1C(=O)NCc1ccc(F)cc1 (centres unmarked) [CBK285554]	105.496
c1cn2cnnc2c(N2CCOC(c3ccsc3)C2)n1 (centres unmarked) [CBK306379]	84.4121
Cc1ccc2nc(CSc3ncnc4sc(C)cc34)[nH]c2c1 [CBK270047]	99.8948
COc1ccccc1N1C(=O)c2ccc(C(=O)Nc3cc([N+](=O)[O-])ccc3O)cc2C1=O [CBK264272]	113.997
O=C(c1ccccc1)n1c(=S)nc2n(c1=S)CCN2 [CBK021794]	46.6756
CC(C)C(=O)Nc1ccc2nc(-c3ccoc3)c(-c3ccoc3)nc2c1 [CBK286304]	86.4348
CSc1cccc(CN2C[C@H]3CN(C(=O)C4CCC4)C[C@@]3(C(=O)O)C2)c1 [CBK307645]	65.7664
CN1C2C=C(N(CCc3ccccc3)C(=O)c3ccc(Cl)cc3)CC1CC2 (centres unmarked) [CBK262604C]	104.891
Oc1ccc(/C=N/c2nnn[nH]2)cc1 [CBK260976]	69.1066
Cc1noc(C)c1C(=O)N1CCN(CCc2ccccc2)CC1 [CBK200225]	104.924
O=C(O)CSc1nnc(-c2ccc(F)cc2)o1 [CBK068115]	89.8934
CC1CCCCN1Cc1ccc(-c2nnn(CC(=O)NCc3ccco3)n2)cc1 (centres unmarked) [CBK122002]	106.762
CCn1c(/C=C/C2=CCN(C)CC2)nc2ccccc21 [CBK283745]	95.8043
COC(=O)c1sc(NC(=O)C2CCCCC2C(=O)O)c(C(=O)OC)c1C (centres unmarked) [CBK265389]	97.0871
NCCCOc1cncc(N2CCCC2)n1 [CBK115603]	102.514
